The values that follow come from PubChem BioAssay (NCI).

The term TGI denotes the concentration at which net growth stops. A high value points to less potent growth arrest. Broadly, the GI50 is the concentration that inhibits growth by half.

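Briefly, cells in 96-well plates were exposed to five compound concentrations for 48 h, and endpoints were estimated by linear interpolation. GI50 marks 50% less growth. TGI denotes the concentration required for complete inhibition of growth.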

The subject of the test is NCI-H322M lung. Put plainly: DTP human tumour cell line panel, 48 h.

Turning to `CC1=NN2C(=N)/C(=C/c3ccc(F)cc3)C(=O)N=C2S1`, the TGI was > 100 µM.

Regarding `C=C(C)[C@H]1CC23C(=O)[C@@](C)(C[C@H]2C1(C)C)C(=O)C(C(=O)C(C)C)=C3O`, the TGI was determined as 49 µM.

On to `COc1ccc([C@@H]2OC(=O)C3C2C(=O)O[C@H]3c2ccc(OC)c(OC)c2)cc1OC` (some centres undefined), for which the TGI is > 100 µM.

Regarding `CSc1ccc(/C=C2\N=C(c3ccccc3)N(c3nc4cc(Cl)c(F)cc4s3)C2=O)cc1`, the concentration for total growth inhibition (TGI) was > 100 µM.

Take `O=C[C@@H](CO)O[C@H](C=O)n1cnc2c(=O)[nH]cnc21`: the TGI worked out at 1550 µM.

In the case of `COc1ccc(OC(C)C(=O)O)c2c(=O)ccccc12` (centres undefined), the TGI is > 100 µM.

On to `C/C=C(\C)C(=O)OC1/C=C(\C)CC/C=C(\C)CC2OC(=O)C(C)(OC(C)=O)C12` (centres undefined), for which the TGI was > 100 µM.

For `CC1=CCCC2C(C=O)(C1)CC(C)C2(CO)CC/C(=C/CO)CO` (centres undefined), the TGI is > 100 µM.

As to `COC(=O)[C@H](Cc1cn(C)cn1)NC(=O)[C@H](Cc1ccccc1)NC(=O)Nc1cc(C(F)(F)F)cc(C(F)(F)F)c1`, the GI50 was 18.9 µM and the TGI stood at 33.5 µM.

As for `CC(C)=CCc1c(O)cc2oc(-c3ccc(O)cc3O)cc(=O)c2c1O`, the TGI was > 100 µM.

On to `Cc1nc2c(=O)n(-c3ccccc3)c(=O)n(-c3ccccc3)c2o1`, for which the TGI is > 100 µM.

On to `CC1=C(C(=O)OCCO[N+](=O)[O-])C(c2ccccc2[N+](=O)[O-])C(C(=O)OC(C)C)=C(C)N1` (centres undefined), for which the TGI worked out at 64.4 µM.

As for `COc1cc2c(cc1OCc1ccccc1)NC(=O)[C@@H]1CCCN1C2=O`, the TGI is > 100 µM.

In the case of `O=c1c2cc([N+](=O)[O-])ccc2oc2nc3n(c(=O)c12)CCCS3`, the TGI was > 100 µM.

Consider `COc1cc(NCCCCCN=C(N)NC(N)=NC(C)C)c2ncccc2c1`, for which the GI50 is 2.59 µM and the TGI is 15.6 µM.

Consider `CCOC(=O)c1csc(NC(=O)CCN2CCN(C)CC2)n1`, for which the total growth inhibition concentration (TGI) was > 100 µM.

With `Cc1c(C(=O)NNc2ccccc2)n2c(=S)[nH]nc2c2ccccc12`, the TGI is > 100 µM.

Consider `CCOC(=O)C(NC(=O)c1cccc(Cl)c1)(Nc1cccc(C)c1)C(F)(F)F` (centres undefined), for which the TGI is 51.1 µM.

Consider `CC1SC(c2ccc(Cl)cc2Cl)N(NC(=O)C(O)c2ccccc2)C1=O` (centres undefined), for which the GI50 was > 100 µM and the total growth inhibition concentration (TGI) was > 100 µM.

For the molecule `C[C@@H]1CC[C@@]2(NC1)O[C@H]1C[C@H]3[C@@H]4CC[C@H]5C[C@@H](O)CC[C@]5(C)[C@H]4CC[C@]3(C)[C@H]1[C@@H]2C`, the TGI was > 100 µM.

As to `O=C([O-])CC(=O)[O-].[NH-][C@@H]1CCCC[C@H]1[NH-].[Pt+4]`, the GI50 is > 87.2 µM and the TGI was > 100 µM.

Consider `CO[C@@]1(c2ccccc2)O[C@H]2OCCC2[C@H]1c1ccc(Cl)cc1` (some centres undefined), for which the TGI is > 100 µM.

As for `COc1cc2nccc(Oc3ccc(NC(=O)c4cn(C(C)C)c(=O)n(-c5ccc(F)cc5)c4=O)cc3F)c2cc1OC`, the GI50 was > 35.1 µM and the TGI was > 100 µM.

Turning to `N#CC1=C(N)NC(=O)NC12Nc1ccccc1N2`, the GI50 was > 100 µM and the TGI is > 100 µM.

For the molecule `CC(=O)[CH-]C(=O)c1ccccc1.CC(=O)[CH-]C(=O)c1ccccc1.[O-]c1ccc2c(c1)OCO2.[O-]c1ccc2c(c1)OCO2.[Ti+4]`, the GI50 is 39.8 µM and the TGI was > 100 µM.

The molecule `COC1(CC[C@H](C)COC2OC(CO)C(O)C(O)C2O)O[C@H]2C[C@H]3[C@@H]4CC=C5C[C@@H](OC6OC(CO)C(OC7OC(C)C(O)C(O)C7O)C(O)C6OC6OC(C)C(O)C(O)C6O)CC[C@]5(C)[C@H]4CC[C@]3(C)[C@H]2[C@@H]1C` (some centres undefined) yielded a TGI of 13.1 µM.

With `CC(=O)[O-].N.N.N.N.[Co+3].[O-][Cl+3]([O-])([O-])[O-].[OH3+]`, the GI50 was > 100 µM and the TGI was > 100 µM.

For `CSc1ncc2c(n1)-c1ccccc1OC2NC1CC1` (centres undefined), the TGI was > 100 µM.

Regarding `CC1(C)N=C(N)N=C(N)N1c1cccc(Cl)c1`, the concentration for total growth inhibition (TGI) was > 100 µM.

As for `O=P(O)(O)OCC1OC(n2cnc3c(NCc4ccccc4)ncnc32)C(O)C1O` (centres undefined), the GI50 is 2.18 µM and the total growth inhibition concentration (TGI) is > 100 µM.

As for `NC(Cc1ccccc1)c1nccs1` (centres undefined), the TGI was > 100 µM.

`CCOC(=O)[C@@H](Cc1ccc(CCl)cc1)NC(C)=O` displayed a TGI of 88.8 µM.

As for `CC1(C)OCC(C2OC(C)(C)OC2[C@H]2O[C@@]3(O)[C@H]4[C@H](C=CC[C@@H]42)[C@@H](OCc2ccccc2)[C@H](OCc2ccccc2)[C@H]3OCc2ccccc2)O1` (some centres undefined), the TGI was > 100 µM.

The molecule `CCN(CC)C(=S)N/N=C(/c1ccccc1)c1ccccn1` showed a TGI of 51.6 µM.

With `COC(=O)N/N=C(\C)CC(=O)Nc1ccc(Cl)cc1`, the TGI is > 100 µM.

On to `O=C1CSC(c2c[nH]c3ccccc23)N1c1ccc(Cl)cc1Cl` (centres undefined), for which the TGI is > 100 µM.

With `Cc1cc(-c2ccccc2)nc2oc(=O)n(C)c12`, the TGI is > 100 µM.

In turn, `C=C1C[C@@H]2O[C@H]3[C@H]4[C@@H](C[C@@H](C)[C@@H](OC(C)=O)[C@H]42)[C@@H](C)CO[C@@]3(C)[C@H](OC(=O)CCCCCCC)CC1=O` returned a TGI of 50.7 µM.

As for `COc1ccc2c(c1)CN1CCc3c(cc(OC)c(OC)c3OC)C1C2` (centres undefined), the TGI is > 100 µM.

`C=CN(C=C)C(=O)Cn1cc(-c2ccccc2)nn1`: the TGI is > 100 µM.

`COc1cc2cnc3c4cc(OCc5ccccc5)ccc4ccc3c2cc1OC`: the TGI is > 100 µM.

With `N#Cc1c(-c2ccc([N+](=O)[O-])cc2)c(C#N)c(=O)n(NS(=O)(=O)c2ccccc2)c1O`, the TGI is > 100 µM.

`CO[P@@]1(=O)O[C@@H](c2ccccc2)[C@H](O)[C@]1(O)c1ccccc1` showed a TGI of 98.5 µM.

`COc1ccc(C2C=C(c3ccc(C)cc3)N(c3ccc(OC)cc3[N+](=O)[O-])C3C(=O)OC(=O)C23)c(OC)c1` (centres undefined): the TGI amounted to 81.3 µM. The TGI values of the last two molecules are within 1.5-fold of each other.

Turning to `O=C(O)c1ccc(SSc2ccc(C(=O)O)cn2)nc1`, the TGI was > 100 µM.

As to `CN(C)CCCNc1nc2ccccc2c2[nH]c3ccccc3c12`, the GI50 was 0.89 µM and the TGI was 2.49 µM.

For `C[C@H]1[C@H](C)CC[C@]2(C(=O)OC3OC(CO)C(O)C(O)C3O)CC[C@]3(C)C(=CC[C@@H]4[C@@]5(C)C[C@@H](O)[C@@H]6OC(=O)c7cc(O)c(O)c(O)c7-c7c(cc(O)c(O)c7O)C(=O)OC[C@@]6(CO)[C@@H]5CC[C@]43C)[C@H]12` (some centres undefined), the TGI was > 100 µM.

As for `N#Cc1cccc(N2C(=O)C3C4C=CC(C3C2=O)C2C(=O)N(c3cccc(C#N)c3)C(=O)C42)c1` (centres undefined), the TGI was > 63.1 µM.

With `Cc1ccc(C)c(COCCOCn2cc(N3CCOCC3)c(=O)[nH]c2=O)c1`, the TGI is > 100 µM.

As for `C=C(C)[C@@H]1CC[C@]2(C(=O)NS(=O)(=O)c3ccccc3)CC[C@]3(C)[C@H](CC[C@@H]4[C@@]5(C)CC[C@H](OC(=O)NS(=O)(=O)c6ccccc6)C(C)(C)[C@@H]5CC[C@]43C)[C@@H]12`, the GI50 is 1.79 µM and the TGI was 4.72 µM.

`CCCCN(CCCC)CC(C(C)=O)C(c1ccccc1)c1c(O)c2ccccc2oc1=O` (centres undefined): the TGI is > 100 µM.

For the molecule `CC(SCc1ccccc1)C(=O)O` (centres undefined), the TGI was > 100 µM.

On to `Cc1ccc(C(=O)NC2CC2)cc1-c1ccc2[nH]ncc2c1`, for which the GI50 is > 25 µM and the TGI was > 25 µM.

`CC1=C(C)SC(=C2Sc3c(n(C)c(=O)n(C)c3=O)S2)S1`: the TGI was > 100 µM.

Turning to `O=C(c1ccco1)N(C(=O)N1CCC(c2ccccc2)CC1)c1ccccc1`, the total growth inhibition concentration (TGI) is > 100 µM.

`CCn1c(-c2nonc2N)nc2c(N3CCCC3)nccc21`: the GI50 is 18.2 µM and the total growth inhibition concentration (TGI) is > 25 µM.
